Measured values published in PubChem BioAssay AID588342 (National Center for Advancing Translational Sciences (NCATS), 2011).
“And” between values parts separate entries of the source, which are not always exact repeats. Equal values may be shown once. About 25,000 (6.9%) of roughly 360,000 compounds were called active. Inconclusive results, whose numbers are uncertain, are shown with a selection of clear calls. Calls follow the shape of the dose curve; as a rule, active = well fitted inhibition curve with a large enough effect; inconclusive = small, poorly fitted or top-dose-only effect; inactive = flat fitted curve, though single readings scatter. Potencies beside an inconclusive call are fits to weak or partial responses and may not hold up.

Molecular target: Luciferin 4-monooxygenase (Photinus pyralis) (UniProt P08659)
Chain of UniProt P08659 (P08659 whole entry, looked up): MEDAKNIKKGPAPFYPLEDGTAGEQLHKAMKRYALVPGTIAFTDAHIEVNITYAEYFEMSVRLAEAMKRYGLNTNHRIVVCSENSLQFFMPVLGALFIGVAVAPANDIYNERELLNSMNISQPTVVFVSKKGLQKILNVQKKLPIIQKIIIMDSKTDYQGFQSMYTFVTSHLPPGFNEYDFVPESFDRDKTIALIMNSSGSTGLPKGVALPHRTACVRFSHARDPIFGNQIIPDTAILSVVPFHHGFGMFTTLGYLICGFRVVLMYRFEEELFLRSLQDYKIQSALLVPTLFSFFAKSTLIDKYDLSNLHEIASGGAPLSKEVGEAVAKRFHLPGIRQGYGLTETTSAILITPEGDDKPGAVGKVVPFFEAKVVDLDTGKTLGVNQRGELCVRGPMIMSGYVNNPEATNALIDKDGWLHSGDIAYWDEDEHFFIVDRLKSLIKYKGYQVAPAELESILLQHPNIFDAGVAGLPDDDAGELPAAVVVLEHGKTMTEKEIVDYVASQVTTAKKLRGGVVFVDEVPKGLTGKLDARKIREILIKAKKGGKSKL
Test: qHTS profiling assay for firefly luciferase inhibitor/activator using purifed enzyme and Km concentrations of substrates (counterscreen for miR-21 project); also: nearly all actives have a fitted effect of over 55% in size
Settings: purified FLuc, luminescence inhibition; series mostly up to 57.5 µM
Outline: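 Biochemical qHTS of compounds, final roughly 60 µM downward over six points, against 10 nM purified firefly luciferase using Km concentrations of substrates (10 uM D-luciferin, 10 uM ATP) in Tris acetate pH 7.5 buffer; luminescence output.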
Potency is read from the fitted curve at half-maximal effect; tags tell the direction and shape of the fitted curve.

| SMILES | Potency |
| --- | --- |
| O=C(OCC(=O)N1CCN(C(=O)c2ccco2)CC1)c1cc(-c2ccccc2)nc2ccccc12 | active: 15.1 µM |
| CCCN(C(=O)c1cc2ccc3cccnc3c2[nH]1)c1ccc(F)cc1 | inconclusive: 23.9 µM [inhibitor, partial curve, poor fit] |
| COc1ccccc1C1=NC(c2ccc(C)cc2)N=C1C (stereo unspecified) | active: 15.1 µM |
| COc1cc(OC)cc(C(=O)NCC(=O)N2CCCCC2)c1 | inactive |
| CCCCOc1ccc(-c2nnn(C(C)C(=O)OCC)n2)cc1 (stereo unspecified) | inconclusive: 26.9 µM [inhibitor, partial curve, poor fit] |
| Cc1ccc(CSc2nnc(-c3ccccn3)n2N)cc1 | inconclusive: 37.9 µM [inhibitor, partial curve, poor fit] |
| O=C(N/N=C1\CCCc2ccccc21)c1ccc([N+](=O)[O-])cc1 | active: 6.01 µM |
| O=C(N/N=C/c1cc(Cl)ccc1O)c1ccncc1 | inconclusive: 21.3 µM [inhibitor, partial curve, poor fit] |
| COc1ccc(Nc2ccccc2NC(=O)c2ccccc2Br)cc1 | inactive |
| COCCCNc1nc2c(-c3ccc(C)cc3)nnn2c2ccccc12 | inconclusive: 9.53 µM [inhibitor, partial curve, poor fit] |
| CC(C)n1cc(/C=N\NC(=O)c2cc3c(ccc4ccccc43)o2)c2ccccc21 | inconclusive: 6.75 µM [inhibitor, partial curve] |
| CC(=O)Nc1cc(C(=O)OCC(=O)c2ccc(C)cc2)ccc1C | active: 6.01 µM |
| COc1ccc(CNC(=O)CN(C(=O)c2csnn2)c2ccc(C(C)=O)cc2)cc1 | inactive |
| CCCCOc1ccc(CNC(=O)Cc2ccc(NC(=O)N3CCCCc4ccccc43)cc2)cc1 | inactive |
| Cc1ccc(N2C(=O)N(CC(=O)Nc3ccc(F)c(F)c3)C(=O)C2C)cc1 (stereo unspecified) | inconclusive: 16.9 µM [inhibitor, partial curve, poor fit] |
| CCCCCn1nc(C(=O)OCc2nnc(-c3ccccc3)o2)c2ccccc2c1=O | inactive |
| O=C(CN1C(=O)S/C(=C/c2ccc(N3CCOCC3)cc2)C1=O)N1CCOCC1 | active: 3.01 µM |
| CCn1c(=O)n(-c2ccc(F)cc2)c(=O)c2sc3ccccc3c21 | inactive |
| COc1ccc(Cc2cc(-c3ccc(F)cc3)n[nH]c2=O)cc1 | inconclusive: 37.9 µM [inhibitor, partial curve, poor fit] |
| O=C(O)c1ccccc1SCC(=O)N1CCc2ccccc21 | active: 21.3 µM |
| O=C(Nc1ccc(Cl)cn1)c1ccc(COc2ccccc2Br)o1 | inconclusive: 15.1 µM [inhibitor, partial curve] |
| CC(C)(C)OC(=O)N1CCC(c2c(C(=O)N3CCN(c4ccccc4)CC3)cnn2-c2ccccc2)CC1 | inactive |
| Cc1ccc(S(=O)(=O)N2CCCc3cc(NS(=O)(=O)c4cc(F)ccc4F)ccc32)cc1 | inconclusive: 21.3 µM [inhibitor, partial curve, poor fit] |
| CCN(CC)c1ccc2ccc(=O)oc2c1 | inconclusive: 26.9 µM [inhibitor, single point] |

| SMILES | Potency |
| --- | --- |
| O=C(CCc1nnc(CCCc2ccccc2)o1)N1CCCCCC1 | active: 21.3 µM |
| O=C(NCCc1ccccc1)c1cnc2sccn2c1=O | active: 16.9 µM |
| C=CCOC(=O)C(=O)/C=C/c1ccc2c(c1)Cc1ccccc1-2 | active: 10.7 µM |
| Cc1cccc(-n2ccnc2CN2CCC(CO)(Cc3ccccc3)CC2)c1 | inconclusive: 37.9 µM [inhibitor, partial curve, poor fit] |
| Cc1ccc(S(=O)(=O)N2CCOCC2)cc1NC(=O)CSc1nnc2cc(C)c3ccccc3n12 | inconclusive: 42.6 µM [inhibitor, partial curve, poor fit] |
| O=C(Cn1cc(S(=O)(=O)N2CCCC2)c(S(=O)(=O)N2CCCC2)c1)Nc1ccccc1 | inactive |
| O=C(Nc1cccc(NC(=O)c2ccccc2F)c1)c1ccccc1 | inconclusive: 26.9 µM [inhibitor, single point] and inconclusive: 19 µM [inhibitor, partial curve] |
| S=C(NCCN1CCOCC1)Nc1ccc(-c2nc3ccccc3[nH]2)cc1 | inconclusive: 26.9 µM [inhibitor, partial curve] |
| O=C(O)c1ccc(NC(=S)NC(=O)c2ccc3ccccc3c2)cc1 | inconclusive: 6.75 µM [inhibitor, single point] |
| O=C(CCc1ccccc1)Nc1cc2c(cc1Cl)OCCO2 | active: 10.7 µM |
| Cc1ccccc1NC(=O)c1ccc2nccnc2c1 | inconclusive: 33.8 µM [inhibitor, partial curve, poor fit] |
| Cc1cccc(-c2nc3ccccc3n2Cc2ccccc2)c1 | inconclusive: 23.9 µM [inhibitor, partial curve, poor fit] |
| CC(C)OC(=O)C(C(=O)C(F)(F)F)c1cc(NS(=O)(=O)c2ccc3c4c(cccc24)C(=O)N3)ccc1O (stereo unspecified) | inconclusive: 26.9 µM [inhibitor, partial curve, poor fit] |
| CCOC(=O)N1CCc2c(sc(NCc3cccc(F)c3)c2C(=O)Nc2ccc(OC)cc2OC)C1 | active: 15.1 µM |
| CN(C/C=C/c1ccccc1[N+](=O)[O-])Cc1ccccc1 | inactive |
| O=C(O)c1cccc(CSc2nnc(COc3ccccc3)o2)c1 | inconclusive: 37.9 µM [inhibitor, single point] |
| O=C(O)/C=C/C(=O)Nc1ccccc1C(=O)OCC(=O)c1ccc2c(c1)OCCO2 | active: 0.19 µM |
| Cc1ccc(/C=C(\C#N)C(=O)N2CCCC2)c(C)c1 | active: 15.1 µM |
| COc1ccccc1S(=O)(=O)Cc1ccc(C(=O)NC2CCCCCC2)o1 | inactive |
| O=C(COC(=O)c1c(F)cccc1Cl)NC1CCCC1 | inconclusive: 37.9 µM [inhibitor, partial curve, poor fit] |
| CCc1ccc(OCc2cc(=O)n3c4c(sc3n2)CCCC4)cc1 | inconclusive: 16.9 µM [inhibitor, partial curve] |
| Cc1cc(/C=N/NC(=O)c2ccccn2)c(C)n1-c1cccc([N+](=O)[O-])c1 | inconclusive: 37.9 µM [inhibitor, single point] |
| Cc1cc(C)nc(N=Nc2c(O)n(Cc3ccc(Cl)cc3)c3ccccc23)n1 | inconclusive: 9.53 µM [inhibitor, partial curve, poor fit] |
| COc1cccc(N2CCN(C(=O)C3Cc4ccccc4N3C(C)=O)CC2)c1 (stereo unspecified) | inactive |

| SMILES | Potency |
| --- | --- |
| O=C(CCN1C(=O)C2C3CCC(C3)C2C1=O)OCC(=O)c1ccc(Cl)cc1 (stereo unspecified) | inconclusive: 26.9 µM [inhibitor, partial curve, poor fit] |
| CCCCCCCCCCCCC/C=C/[C@@H](O)[C@@H](N)CO | inconclusive: 33.8 µM [inhibitor, partial curve, poor fit] |
| CCc1ccccc1OCC(=O)Nc1cccc(S(=O)(=O)NC2=NCCCCC2)c1 | inconclusive: 37.9 µM [inhibitor, partial curve, poor fit] |
| CCOC(=O)c1ccc(S(=O)(=O)N2CCN(C(=O)c3nn(C)c(=O)c4ccccc34)CC2)cc1 | inactive |
| CC(C)OC(=O)Nc1ccc2c(c1)N(C(=O)CCN1CCOCC1)c1ccccc1CC2 | inconclusive: 26.9 µM [inhibitor, partial curve] |
| COc1ccc(C(=O)C2CCCN(Cc3cccn3-c3ccc(Cl)cn3)C2)c(OC)c1 (stereo unspecified) | inactive |
| COc1ccc(CCNC(=O)CN2C(=O)NC3(CCOc4ccccc43)C2=O)cc1 (stereo unspecified) | inactive |
| COc1cccc(NC(=O)C2CCCCC2)c1 | inconclusive: 26.9 µM [inhibitor, partial curve] |
| Cn1c(SCC(=O)NC2CCCC2)nnc1C(F)(F)F | inactive |
| Cc1cc(C)c(C)c(OCC(=O)Nc2ccc(S(=O)(=O)Nc3nc(C)cc(C)n3)cc2)c1 | inconclusive: 12 µM [inhibitor, partial curve, poor fit] |
| Clc1ccc(-c2ccn[nH]2)cc1 | inconclusive: 30.1 µM [inhibitor, partial curve, poor fit] |
| COc1ccccc1NC(=O)CCn1nc(-c2ccccc2OC)c2c(C)cc(C)nc21 | inactive |
| Clc1ccccc1-c1nc(-c2cccnc2)no1 | active: 3.01 µM |
| CCOC(=O)C1CCCN(C(=O)c2cc3cc4ccc(OC)cc4nc3o2)C1 (stereo unspecified) | inconclusive: 26.9 µM [inhibitor, partial curve, poor fit] |
| CCn1nc(C)c(/C=N/NC(=O)CSc2ccccn2)c1C | inconclusive: 23.9 µM [inhibitor, partial curve] |
| CC(=O)c1ccc(OCc2ncc(C(F)(F)F)cc2Cl)cc1 | inconclusive: 42.6 µM [inhibitor, partial curve, poor fit] |
| CC(C)CNC(=O)COCc1cc(-c2ccc3c(c2)OCO3)on1 | inconclusive: 16.9 µM [inhibitor, partial curve] |
| COc1ccc2nc(SCC(=O)Nc3ccc4c(c3)OCCO4)[nH]c2c1 | active: 13.5 µM |
| CCNC(=O)CC1C(=O)N(c2ccc(OC)cc2)C(=O)N1CCOC (stereo unspecified) | inactive |
| COc1ccccc1NC(=O)CCSc1nc(C)cs1 | inactive |
| CCCCC1(C)OC(=O)C(=Cc2ccc(-c3ccc(Cl)c(C(=O)O)c3)o2)C(=O)O1 (stereo unspecified) | inconclusive: 23.9 µM [inhibitor, single point] |
| CCNC(=S)Nc1ccc(OCc2nc3ccccc3s2)cc1 | active: 12 µM |
| COc1ccc(NC(=O)CSc2nc3ccccc3nc2N2CCC(C)CC2)cc1 | inactive |
